# Publication PMC12136788
# The other results are listed elsewhere or left out.
# T1: UNK ZnF1-3 (human, UniProt Q9C0B0 31-174)
# T1 sequence: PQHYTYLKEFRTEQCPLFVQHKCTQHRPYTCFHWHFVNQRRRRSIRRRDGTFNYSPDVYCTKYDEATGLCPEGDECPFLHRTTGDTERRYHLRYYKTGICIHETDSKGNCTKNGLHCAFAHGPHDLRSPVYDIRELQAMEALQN
# B1: 99831459_99835722_1545_CDS_ENSMUSG00000023025_ENSMUST00000100206|mouse|control|control (ssRNA)
# RNA: GGGAGUUCUACAGUCCGACGAUCAUCAAACUUCGGAGUUGGAGCCUUGGCUUCAGUUGCUGCAGGUUGGGGUCUUGGGAUCCUGUCAUCAUCCCUUCGCCUUCGGCCUCUGAAGAGAGUUCGCCUGCCUCUUCCAAAGUCCCCCAACAGAGGAUUGAGCAUCA
# B2: 81440336_81440456_2144_CDS_ENSMUSG00000049106_ENSMUST00000054145|mouse|control|control (ssRNA)
# RNA: GGGAGUUCUACAGUCCGACGAUCGAGCCAUUUGUAAGCUUUGUAAAUCUUACGCUCAACUGAUUCCAUGUUGGCGGCUGGUGGUGCCCGGCUUGGCUGAACAUCCAGAGUGGAAGCGCUCCGCUCAGGGGAGGAGUCUGGGGACAACAGAGGAUUGAGCAUCA
# B3: chr4:48381769:48381770:+_ENSG00000109171_ENST00000512093|hu_mus|FALSE|FALSE (ssRNA)
# RNA: GGGAGUUCUACAGUCCGACGAUCCUUAUAGUUGGAUCCAAUUGAAUCUUCAUCUAAUUCUGAAGCACUUAACUCACUAUCUAUAGAGGACUGAGGGCUGAGUGGAGGGUUUCUAUCUGAUGAACUUUUGAAGUUACCUGAAUUCAACAGAGGAUUGAGCAUCA
# B4: chr2:157388114:157388115:+_ENSMUSG00000067786_ENSMUST00000109526|mus_hu|motif|central (ssRNA)
# RNA: GGGAGUUCUACAGUCCGACGAUCUUGUAGAGGUGGUCCCUGUCCUCCAGGAGCUUACAAUCUAGCUGGGGAGACACAACGGAUGCACACUUAAACAAUCAGUACAAUUAGCGAUUACCACAAUAUUGACCACAACUGCAUGAGCAACAGAGGAUUGAGCAUCA
# B5: chr10:88205819:88205820:+_ENSMUSG00000060904_ENSMUST00000116234|mus_mus|motif|central (ssRNA)
# RNA: GGGAGUUCUACAGUCCGACGAUCGUUGGCUCACAGGCGCUGACGUGAAUGGGCUCACUGUCUGCUUUUCAGGGUUUCAACGGACCAUUCCAUUGCCUCAUCAAGGCCAGUGCCUUUGGUUGCUGAAGUUUUAAAGAUCUGCCACAACAGAGGAUUGAGCAUCA
# B6: chr16:94651144:94651145:+_ENSMUSG00000040785_ENSMUST00000117648|mus_hu|mus_mus_mus_hu_True|58_68 (ssRNA)
# RNA: GGGAGUUCUACAGUCCGACGAUCAUUUUCUUGAAUCAAGUGGCGAAUAACAUAGUCCACUGCUUCAUGGACAAAAUUUUUGCUAGAAAAACAGGUUGUAUAGUCUUCUGUGCUCAAAACUUUCCAAGAAAGCAAUUCUUUGAGCAACAGAGGAUUGAGCAUCA
# B7: chr19:55172049:55172050:-_ENSMUSG00000024978_ENSMUST00000061856|mus_hu|motif|central (ssRNA)
# RNA: GGGAGUUCUACAGUCCGACGAUCUGUGUGCUUACAUCGACCAACACUGUAUUCUGAUGAAUGUGGCAGAUAAGAAACAUCGGUUGUACCAAGGGUCAGUGCAGAUUCAUCCAUGUCACAAAGUGUAAUUCCCAAAUCAUGUGCCAACAGAGGAUUGAGCAUCA
# B8: chr7:135612270:135612271:-_ENSG00000105887_ENST00000393085|hu_mus|hu_hu_hu_mus_False|28_88 (ssRNA)
# RNA: GGGAGUUCUACAGUCCGACGAUCGUUUUUUUCUGAGAUGUUAAAUAUUCAGUGGAGGGAAAACAAAACUUAACCUUUUAUUAAUGCGUGUUGUACCAAAAGCAGACCAUGGUUUUACAUUUAUUCAAAAAUAUUAACAUUAAGCAACAGAGGAUUGAGCAUCA
# B9: chr6:38652254:38652255:-_ENSG00000124767_ENST00000373365|hu_hu|hu_hu_hu_mus_False|78_78 (ssRNA)
# RNA: GGGAGUUCUACAGUCCGACGAUCCGAGAACUUCAUAGCAGGGAAGUCAAGCUUCUGGAUUAGCGUCAGUCCAAGAACCCUCGUAUAAAAAUCCAGGGACUUCUUAGGAUCCUUAAUUCUUAGCAUCGUUUGCUGCAGUAGAAACAACAGAGGAUUGAGCAUCA
# B10: chr18:48606039:48606040:+_ENSG00000141646_ENST00000342988|hu_mus|motif|central (ssRNA)
# RNA: GGGAGUUCUACAGUCCGACGAUCAGUAUACAUGUGUGUCUGUGGUACAGUCAAUGUGUCUUAACUCCUCCACUUCAAUCUCGGCAAAGUCACCGCCAAGUGAUCAAGGAUGGCAAACACAGGGCUUAUAACCAAAAGGUAUAACAACAGAGGAUUGAGCAUCA
# B11: chr17:29226239:29226240:-_ENSG00000172171_ENST00000306049|hu_hu|FALSE|FALSE (ssRNA)
# RNA: GGGAGUUCUACAGUCCGACGAUCUAAUUAUACUUUAGCACGUUAACCUCAGAAUUCUAAGGCUGAGAGUCAAACACUGCUAAUUCAUAGAAGGCAAUAGCUUGUAAUAAUGAAUCAUAAAGCUCUUCUACUCUUUGUAGUUCACAACAGAGGAUUGAGCAUCA
# B12: chr9:14812383:14812384:-_ENSMUSG00000031934_ENSMUST00000164273|mus_mus|mus_mus_mus_hu_True|78_78 (ssRNA)
# RNA: GGGAGUUCUACAGUCCGACGAUCAUAGCCCAGGUAGAUACACGCUAACAGUAUAAUCACAAAUGUCAGCAGGCGGCAGCUAAUGUACUUGAUGAUUAAAUUAUUAGAAUUUUUCUUUGUCUUCAAGUACUGCUCCACAAUUGGCAACAGAGGAUUGAGCAUCA
# B13: 31664629_31664749_1412_3pUTR_ENSG00000169926_ENST00000307145|human|control|control (ssRNA)
# RNA: GGGAGUUCUACAGUCCGACGAUCGAAAGGGGGUUCAACAACGCUGAAUCUCAACUUUGUGGGUGUAUCUAUUGUGCAAUUUGGUGGGUGGUGUUUUUUGAAAUUUUUGUGUUUUUUUUGUUUUUUUAACAAAUUUACUUUGACCAACAGAGGAUUGAGCAUCA
# B14: chr6:122779733:122779734:-_ENSG00000111897_ENST00000339697|hu_hu|FALSE|FALSE (ssRNA)
# RNA: GGGAGUUCUACAGUCCGACGAUCCAACAUUACACAAGCUACACAUACUCCAACAAGCAAGAAAAGUGCAUAGAUCAAUCUAGUUACAGUGGAGUUGUUUCCACUAGGACAGCAUCGGCAUAGCAAACACGGGGCACUUCCACACAACAGAGGAUUGAGCAUCA
# B15: 31410937_31421441_3780_CDS_ENSG00000113360_ENST00000513349|human|control|control (ssRNA)
# RNA: GGGAGUUCUACAGUCCGACGAUCCAGCUCCUCCGCUACCUUGGCCUGAGUUCUAUUAUUCACCAAAGAGCUUCGCAACAAAGUUAAGUGUCCUUCAUGAUGAUCUGGGAAAUGAAUGAAUAAGUACUCUGUGGCUACCAGUUGCAACAGAGGAUUGAGCAUCA
# B16: chr7:118218646:118218647:-_ENSMUSG00000005610_ENSMUST00000162415|mus_hu|FALSE|FALSE (ssRNA)
# RNA: GGGAGUUCUACAGUCCGACGAUCUUCCUGUUUGAGUAAACUGAUCAAAGAACUUGCUUUUUCUUUAUCUUCAUCGCUUCUAUCUAGUGACAGGAUGAUUACUUUGCUUAACAUCUCAGGAAGAAAGUGUUUAGGAGCCCUCAUCAACAGAGGAUUGAGCAUCA
# B17: chr12:73312838:73312839:-_ENSMUSG00000021087_ENSMUST00000021497|mus_hu|motif|central (ssRNA)
# RNA: GGGAGUUCUACAGUCCGACGAUCUCAGUAUCAAGUACAUAAGUGCAAAUAUCCAGAGUCCGUAAUUGAAUCCAUUAGGAACGGCAGAGAAAGUAAUACAAAUUGUAAUAAAGUUAACAUGCUGGUACUUUUUAGUAACCAUACCAACAGAGGAUUGAGCAUCA
# B18: 3977921_3978041_1991_CDS_ENSG00000167658_ENST00000309311|human|control|control (ssRNA)
# RNA: GGGAGUUCUACAGUCCGACGAUCGGGCCCAAAGCACCAGAUCUUGCGGGCCUCAGCCACGUCCCACUCGUACUUCUCGGCCAGGUAGCGCGCCCGCUGCUUGAGCUCCUGACGGGCGGACACCUCGCCUUUAUCGAUGUCCUCCAACAGAGGAUUGAGCAUCA
# B19: chr19:40639365:40639366:-_ENSMUSG00000025007_ENSMUST00000025979|mus_mus|FALSE|FALSE (ssRNA)
# RNA: GGGAGUUCUACAGUCCGACGAUCGGCUGCCACCUGGGGUAGACAGUCAGGGCGAGACUCAAAGAUCACCAGUAAAACACCUAUUGGGACAGUCACUUGUUCUAACUCCAGGUUUUUGGCAAUCCGAGUCCGGCGCAGGACGCGCAACAGAGGAUUGAGCAUCA
# B20: chr18:9859796:9859797:+_ENSG00000168461_ENST00000578921|hu_mus|motif|central (ssRNA)
# RNA: GGGAGUUCUACAGUCCGACGAUCGUCCAGCUGUGCAUCUCUGAUCUCCCUCAGAAAACUAAUAAAGACUUACUUCCAAAGCCAGCGGAGCGCUAACCUCCUAUUAUAGCCUUUGCCUUUUGGUGAACUGGCCAGAAAGGAAGGCAACAGAGGAUUGAGCAUCA
# B21: chr11:74493064:74493065:-_ENSMUSG00000020745_ENSMUST00000021091|mus_hu|FALSE|FALSE (ssRNA)
# RNA: GGGAGUUCUACAGUCCGACGAUCCUUGUUCUUGUAAUCCCAUACGCGUAGGGUCUUGUCAUCAGCACAACUCAAAAUAAACUUCCCCCCAGAAUGGAACAGAACUCCACGUACCCAGUUAUCAUGACCCACGAGGGUCAUAAGCAACAGAGGAUUGAGCAUCA
# B22: chr17:57759655:57759656:+_ENSG00000141367_ENST00000269122|hu_mus|FALSE|FALSE (ssRNA)
# RNA: GGGAGUUCUACAGUCCGACGAUCUCGAGCCUUCUUGCGUGCCAUCUGCAAAUACUUCACCAAUUCUUCCCAGUUUCCGCUGGCAUUGGCAGCCUGGACAACUUCCAUGUAAGAUGAAGGAUCAUCUGCUUUGAUGUAAGAAUCCAACAGAGGAUUGAGCAUCA
# Target: T1, UNK ZnF1-3
# Assay: nsRBNS (natural sequence RNA bind-n-seq); RBNS binding buffer (assumed for nsRBNS): 25 mM Tris pH 7.5, 150 mM KCl, 3 mM MgCl2, 0.01% Triton X-100, 500 ug/ml BSA, 20 U/ml SUPERase-In, 4 C; UNK is unkempt and MSI1 is Musashi-1; names of the RNAs are library labels; protein concentration not given here; high values mean tight binding
row,Binder,binding signal [enrichment R]
1,B1,0.763
2,B2,1.07
3,B3,1.21
4,B4,1.58
5,B5,0.473
6,B6,0.463
7,B7,1.86
8,B8,1.86
9,B9,1.18
10,B10,1.03
11,B11,0.881
12,B12,1.55
13,B13,0.95
14,B14,1.74
15,B15,1.39
16,B16,0.868
17,B17,1.54
18,B18,0.544
19,B19,1.48
20,B20,1.27
21,B21,0.977
22,B22,0.804
